In patent US20110286916A1:

Legend:
[1] = target: human Notch1-Gal4 chimeric receptor on U2OS FlpIn TREx cells (human), P46531; assay: cell-based or functional assay
[2] = target: human Notch2-Gal4 chimeric receptor on U2OS FlpIn TREx cells (human), Q04721; assay: cell-based or functional assay
Chain of human Notch2-Gal4 chimeric receptor on U2OS FlpIn TREx cells (human), Q04721 (Q04721 26-2471, change not shown): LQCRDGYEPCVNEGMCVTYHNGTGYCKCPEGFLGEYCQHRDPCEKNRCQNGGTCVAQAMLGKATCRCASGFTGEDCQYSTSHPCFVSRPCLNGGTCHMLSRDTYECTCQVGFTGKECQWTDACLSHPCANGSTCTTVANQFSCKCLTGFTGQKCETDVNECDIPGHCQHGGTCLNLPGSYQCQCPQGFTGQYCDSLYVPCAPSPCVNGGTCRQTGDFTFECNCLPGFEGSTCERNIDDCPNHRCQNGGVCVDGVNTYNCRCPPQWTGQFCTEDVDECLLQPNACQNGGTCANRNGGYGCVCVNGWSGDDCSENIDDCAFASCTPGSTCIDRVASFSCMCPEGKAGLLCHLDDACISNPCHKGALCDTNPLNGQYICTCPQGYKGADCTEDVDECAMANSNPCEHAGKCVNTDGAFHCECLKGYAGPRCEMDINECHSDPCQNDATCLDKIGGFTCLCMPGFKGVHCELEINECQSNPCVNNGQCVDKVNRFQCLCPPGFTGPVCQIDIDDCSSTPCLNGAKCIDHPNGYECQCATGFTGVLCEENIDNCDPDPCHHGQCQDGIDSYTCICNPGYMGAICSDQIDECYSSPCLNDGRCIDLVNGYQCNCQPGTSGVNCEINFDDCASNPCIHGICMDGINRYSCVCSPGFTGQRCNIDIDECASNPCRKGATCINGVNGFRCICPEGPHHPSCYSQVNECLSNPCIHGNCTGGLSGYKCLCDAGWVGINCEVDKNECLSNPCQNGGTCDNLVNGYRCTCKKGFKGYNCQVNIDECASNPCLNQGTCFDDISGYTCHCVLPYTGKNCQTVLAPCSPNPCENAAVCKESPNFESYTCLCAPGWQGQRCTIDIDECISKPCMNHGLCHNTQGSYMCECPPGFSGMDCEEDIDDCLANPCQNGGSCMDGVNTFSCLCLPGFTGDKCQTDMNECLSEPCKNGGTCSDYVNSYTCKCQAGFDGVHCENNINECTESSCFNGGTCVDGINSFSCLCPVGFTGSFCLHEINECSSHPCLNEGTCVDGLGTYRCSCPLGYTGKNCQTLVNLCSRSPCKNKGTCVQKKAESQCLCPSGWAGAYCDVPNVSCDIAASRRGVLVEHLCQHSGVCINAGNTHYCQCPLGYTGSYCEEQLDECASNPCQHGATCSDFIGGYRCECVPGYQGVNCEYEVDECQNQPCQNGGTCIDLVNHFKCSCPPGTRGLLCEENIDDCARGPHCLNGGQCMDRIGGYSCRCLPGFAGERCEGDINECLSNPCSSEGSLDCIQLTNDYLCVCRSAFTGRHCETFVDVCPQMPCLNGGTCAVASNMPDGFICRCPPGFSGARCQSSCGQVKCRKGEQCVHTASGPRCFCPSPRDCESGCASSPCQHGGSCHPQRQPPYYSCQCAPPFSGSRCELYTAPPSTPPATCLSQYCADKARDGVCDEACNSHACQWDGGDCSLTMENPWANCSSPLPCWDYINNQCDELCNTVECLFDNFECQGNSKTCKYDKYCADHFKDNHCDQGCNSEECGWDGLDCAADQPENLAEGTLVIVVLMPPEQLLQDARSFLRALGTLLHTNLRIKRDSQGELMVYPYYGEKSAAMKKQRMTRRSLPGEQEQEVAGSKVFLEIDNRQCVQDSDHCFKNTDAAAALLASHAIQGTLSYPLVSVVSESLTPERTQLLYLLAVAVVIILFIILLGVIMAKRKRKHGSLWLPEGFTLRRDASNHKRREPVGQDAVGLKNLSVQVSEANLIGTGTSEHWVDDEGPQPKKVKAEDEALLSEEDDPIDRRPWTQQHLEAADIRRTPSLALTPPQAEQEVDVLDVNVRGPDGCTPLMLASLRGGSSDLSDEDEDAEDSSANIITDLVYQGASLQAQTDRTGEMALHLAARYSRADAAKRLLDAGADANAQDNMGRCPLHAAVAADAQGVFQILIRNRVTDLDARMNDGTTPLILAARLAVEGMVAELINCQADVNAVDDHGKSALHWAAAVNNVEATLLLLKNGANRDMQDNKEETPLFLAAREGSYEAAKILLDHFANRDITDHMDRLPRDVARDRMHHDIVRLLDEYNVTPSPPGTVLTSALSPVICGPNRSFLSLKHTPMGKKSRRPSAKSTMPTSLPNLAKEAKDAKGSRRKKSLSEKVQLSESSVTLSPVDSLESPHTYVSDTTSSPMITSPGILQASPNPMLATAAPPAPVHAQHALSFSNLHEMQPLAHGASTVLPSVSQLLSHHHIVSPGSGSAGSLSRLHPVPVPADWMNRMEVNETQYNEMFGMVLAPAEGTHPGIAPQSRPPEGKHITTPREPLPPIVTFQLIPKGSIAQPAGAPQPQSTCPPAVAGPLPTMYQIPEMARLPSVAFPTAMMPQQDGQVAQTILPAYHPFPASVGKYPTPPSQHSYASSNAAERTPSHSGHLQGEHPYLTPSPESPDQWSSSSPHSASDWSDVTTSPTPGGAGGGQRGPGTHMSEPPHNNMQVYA

hN1 (IC50, nM), Jag2-induced Notch1-Gal4 luciferase reporter [1]	hN2, inhibition of Luc activity at [166 nM] Mab [2]	hN1 (IC50, nM), reporter assay [1]	Binder
3.9 nM	< 10%		WC-613 (antibody, human IgG1, lambda) heavy: [about 100 residues not spelt out][about 120 residues not spelt out][human IgG1 Fc not spelt out] light: SYELTQPPSASGTPGQRVTISCSGSYSNIGSNYVYWYQQLPGTAPKLLIYTNNQRPSGVPDRFSGSKSGTSASLVISGLRSDDEGDYYCAAWDDSVSVLLFGGGTKVTVLQPKANPTVTLFPPSSEELQANKATLVCLISDFYPGAVTVAWKADGSPVKAGVETTKPSKQSNNKYAASSYLSLTPEQWKSHRSYSCQVTHEGSTVEKTVAPTECS
	< 5%	> 333 nM	FL-SKNAS-C2-384 (antibody, human IgG1, lambda) heavy: EVQLVQSGAEVKKPGSSVKVSCKASGGTLSSSAISWVRQAPGEGLEWMGGIIPMFDSTNYAQKFQGRVTITADESTSTAFMELSSLRSDDTAVYYCGRDPYYDRLSGGGYMDVWGQGTLVTVSSASTKGPSVFPLAPSSKSTSGGTAALGCLVKDYFPEPVTVSWNSGALTSGVHTFPAVLQSSGLYSLSSVVTVPSSSLGTQTYICNVNHKPSNTKVDKRV[human IgG1 Fc not spelt out] light: SYVLTQPPSVSGALRQTATVTCTGNSSNVGNQGAAWLRQHQGRPPKLLSYRNNDRPSGVSQRFSASTSGNTASLTITGLQSEDEADYFCSAWDSSRSGWVFGGGTKLTVLGQPKAAPSVTLFPPSSEELQANKATLVCLISDFYPGAVTVAWKADSSPVKAGVETTTPSKQSNNKYAASSYLSLTPEQWKSHRSYSCQVTHEGSTVEKTVAPTECS
	< 5%	> 333 nM	FL-SKNAS-D2-268 (antibody, human IgG1, lambda) heavy: [about 100 residues not spelt out]HGHSSGYFVYWGKGTMVTVSSASTKGPSVFPLAPSSKSTSGGTAALGCLVKDYFPEPVTVSWNSGALTSGVHTFPAVLQSSGLYSLSSVVTVPSSSLGTQTYICNVNHKPSNTKVDKRV[human IgG1 Fc not spelt out] light: QAVLTQPSSVSGAPGQRVTISCTGTSSNIGAPYDVNWYQQLPGIAPKLLISGNTNRPSGVPDRFSGSKSGASASLAITGLQADDEADYYCQSYDHSLSGWVFGGGTKVTVLGQPKAAPSVTLFPPSSEELQANKATLVCLISDFYPGAVTVAWKADSSPVKAGVETTTPSKQSNNKYAASSYLSLTPEQWKSHRSYSCQVTHEGSTVEKTVAPTECS
147 nM	< 10%		WC-159 (antibody, human IgG1, lambda) heavy: QLQLVETGGGLVKPGESLTLSCAASGFTFSSYSMNWVRQAPGKGLEWVSSISSSGSSIYYADSLKGRFTISRDNAKNSLYLQMNSLRAEDTAVYYCTRGTQWLAGVGDYWGKGTLVTVSSASTKGPSVFPLAPSSKSTSGGTAALGCLVKDYFPEPVTVSWNSGALTSGVHTFPAVLQSSGLYSLSSVVTVPSSSLGTQTYICNVNHKPSNTKVDKRV[human IgG1 Fc not spelt out] light: QSALTQPPSASASPGQSVTISCTGTSSDVGAYDSVSWYQQHPGKAPKLIIYDVNNRPSGVSNRFSGSESGNTASLTISGLQAEDEANYYCSSYRNTKTVVFGGGTKLTVLQPKANPTVTLFPPSSEELQANKATLVCLISDFYPGAVTVAWKADGSPVKAGVETTKPSKQSNNKYAASSYLSLTPEQWKSHRSYSCQVTHEGSTVEKTVAPTECS
61 nM	< 10%		WC-155 (antibody, human IgG1, lambda) heavy: EVQLVQSGAEVKKPGASVKVSCKASGYNFTGYYMHWVRQAPGQGLEWMGWINPNSGGTNYAQKFQGRVTMTRDTSISTAYMELSRLRSDDTAVYYCATDSFDYWGRGTLVTVSSASTKGPSVFPLAPSSKSTSGGTAALGCLVKDYFPEPVTVSWNSGALTSGVHTFPAVLQSSGLYSLSSVVTVPSSSLGTQTYICNVNHKPSNTKVDKRV[human IgG1 Fc not spelt out] light: QSVLTQPPSVSGAPGQRVTISCTGSSSNIGAGYDVLWYRQLPGTAPKLLIYGNTHRPSGVPDRFSGSNSGTSASLAITGLQAEDEADYYCQSYDSSLSGSVFGGGTKLTVLQPKANPTVTLFPPSSEELQANKATLVCLISDFYPGAVTVAWKADGSPVKAGVETTKPSKQSNNKYAASSYLSLTPEQWKSHRSYSCQVTHEGSTVEKTVAPTECS
152 nM	< 10%		WC-97 (antibody, human IgG1, lambda) heavy: EVQLVQSGAEVKKPGASVKVSCKASGYNFTGYYMHWVRQAPGQGLEWMGWINPNSGGTNYAQKFQGRVAMTRDTSISTAYMELSRLRSDDSAVYYCATDSFDYWGRGTTVTVSSASTKGPSVFPLAPSSKSTSGGTAALGCLVKDYFPEPVTVSWNSGALTSGVHTFPAVLQSSGLYSLSSVVTVPSSSLGTQTYICNVNHKPSNTKVDKRV[human IgG1 Fc not spelt out] light: QSVLTQPPSVSGAPGQRVTISCTGTSSNIGAGYDVQWYQQLPGTAPKVLMYGNSNRPSGVPDRFSGSKSGTSASLAITGLQAEDEADYYCQSYDSSLSGSLFGTGTKVTVLQPKANPTVTLFPPSSEELQANKATLVCLISDFYPGAVTVAWKADGSPVKAGVETTKPSKQSNNKYAASSYLSLTPEQWKSHRSYSCQVTHEGSTVEKTVAPTECS
12 nM	< 10%		S3-009 (antibody, human IgG1, lambda) heavy: EVQLVQSGAEVKKPGASVKVSCKASGYNFTGYYMHWVRQAPGQGLEWMGWINPNSGGTNYAQKFQGRVTMTRDTSISTAYMELSRLRSDDTAVYYCATDSFDYWGQGTMVTVSSASTKGPSVFPLAPSSKSTSGGTAALGCLVKDYFPEPVTVSWNSGALTSGVHTFPAVLQSSGLYSLSSVVTVPSSSLGTQTYICNVNHKPSNTKVDKRV[human IgG1 Fc not spelt out] light: SYVLTQPPSVSEAPRQRVTISCSGSSSNIGNNAVSWYQQLPGKAPKTLIYYDDLLSSGVSDRFSGSRSGTSASLAISGLQSEDEADYYCAAWDDSLNGVVFGGGTKLTVLQPKANPTVTLFPPSSEELQANKATLVCLISDFYPGAVTVAWKADGSPVKAGVETTKPSKQSNNKYAASSYLSLTPEQWKSHRSYSCQVTHEGSTVEKTVAPTECS
	< 15%	> 333 nM	A673-C2-110 (antibody, human IgG1, lambda) heavy: QVQLVQSGTEVKKPGASVRVSCKPSADTFTSYYVHWVRQAPGQGLEWMGTINPTGTYTRYAQQFQGRVTVTRDTSTSSVYMELSSLRSEDSAVYYCARDVRPYTAMYSFDNWGRGTTVTVSSASTKGPSVFPLAPSSKSTSGGTAALGCLVKDYFPEPVTVSWNSGALTSGVHTFPAVLQSSGLYSLSSVVTVPSSSLGTQTYICNVNHKPSNTKVDKRV[human IgG1 Fc not spelt out] light: SYVLTQPPSVSVSPGQTATITCSGDALPKQYANWYQQKPGQAPVLMIYKDSDRPSGIPERFSGSSSGTKATLTISGVQAEDEADYYCQSADNSGTNYVFGTGTKLTVLGQPKAAPSVTLFPPSSEELQANKATLVCLISDFYPGAVTVAWKADSSPVKAGVETTTPSKQSNNKYAASSYLSLTPEQWKSHRSYSCQVTHEGSTVEKTVAPTECS
	< 5%	> 333 nM	FL-SKNAS-C2-514 (antibody, human IgG1, lambda) heavy: EVQLVQSGAEVKEPGESLRISCKASGYDFSNYWIAWVRQMPGKGLEWMGIIYPGDSDTRYSPSFQGQVTISVDRSISTAYLQWSSLKASDTALYYCSRPTYWSTTWGREFDYWGQGTLVTVSSASTKGPSVFPLAPSSKSTSGGTAALGCLVKDYFPEPVTVSWNSGALTSGVHTFPAVLQSSGLYSLSSVVTVPSSSLGTQTYICNVNHKPSNTKVDKRV[human IgG1 Fc not spelt out] light: SYELTQPPSVSVSPGQTATITCSGDALPKKYAYWYQQKSGQAPVLVVYEDSKRPSGIPERFSGSSSGTMATLTISGAQVEDEADYYCYSTDSSGNHWVFGGGTKLTVLGQPKAAPSVTLFPPSSEELQANKATLVCLISDFYPGAVTVAWKADSSPVKAGVETTTPSKQSNNKYAASSYLSLTPEQWKSHRSYSCQVTHEGSTVEKTVAPTECS
	< 15%	0.583 nM	A2780-C2-16 (antibody, human IgG1, lambda) heavy: EVQLVQSGAEVKKPGSSVKVSCKASGGTFSSFAFSWVRQAPGQGLDWMGRIIPILGRTNYAQKFQGRVTFTADTSTSTVYMELSSLSSEDTAVYYCARDREYSLSLGGSDYWGQGTLVTVSSASTKGPSVFPLAPSSKSTSGGTAALGCLVKDYFPEPVTVSWNSGALTSGVHTFPAVLQSSGLYSLSSVVTVPSSSLGTQTYICNVNHKPSNTKVDKRV[human IgG1 Fc not spelt out] light: QAVLTQPSSVSGAPGQRVTISCIGSSSNIGAGYDVHWYRQPPGTAPQLLIYANTNRPSGVPDRFSGSRSGTSASLAITGIQAEDEADYYCQSYDSSLSGRVFGGGTKVTVLGQPKAAPSVTLFPPSSEELQANKATLVCLISDFYPGAVTVAWKADSSPVKAGVETTTPSKQSNNKYAASSYLSLTPEQWKSHRSYSCQVTHEGSTVEKTVAPTECS
	< 5%	0.299 nM	FL-JEG3-C2-11 (antibody, human IgG1, lambda) heavy: EVQLQLVETGGGLVQPVGSLRLSCAASGFSFDNYAMSWVRQAPGKGLEWVSSISGSGGQIFYADSVKGRFTISRDNAKNTLVLQMNSLRVDDTAVYYCARDFYRTPGYNTNWGYWGRGTMVTVSSASTKGPSVFPLAPSSKSTSGGTAALGCLVKDYFPEPVTVSWNSGALTSGVHTFPAVLQSSGLYSLSSVVTVPSSSLGTQTYICNVNHKPSNTKVDKRV[human IgG1 Fc not spelt out] light: SYVLTQPPSVSVSPGETASISCSGDGLGNKYVAWYQQKPGQSPVLVIQQDSKRPSGIPERFSGSNSGDTATLTISGTQSLDEGDYYCQAWDRPAVIFGGGTKLTVLGQPKAAPSVTLFPPSSEELQANKATLVCLISDFYPGAVTVAWKADSSPVKAGVETTTPSKQSNNKYAASSYLSLTPEQWKSHRSYSCQVTHEGSTVEKTVAPTECS
2.1 nM	< 10%		WC-629 (antibody, human IgG1, lambda) heavy: EVQLVQSGAEVKKPGSSVKVSCKASGGTLSSYTVSWLRQAPGQGLEWMGRIIPILDRANYAQKFQGRVTITADKSTSTAYMELNSLRSDDTAVYYCARSIGAAGDGVWFDPWGQGTMVTVSSASTKGPSVFPLAPSSKSTSGGTAALGCLVKDYFPEPVTVSWNSGALTSGVHTFPAVLQSSGLYSLSSVVTVPSSSLGTQTYICNVNHKPSNTKVDKRV[human IgG1 Fc not spelt out] light: QAVLTQPSSVSGAPGQRVTISCTGSSSNIGAGYDVHWYQQLPGTAPKLLIFDNKNRPSGVPDRFSGSNSGTSASLAITGLQAEDEAEYYCQSYDNNLSGRVFGGGTKLTVLQPKANPTVTLFPPSSEELQANKATLVCLISDFYPGAVTVAWKADGSPVKAGVETTKPSKQSNNKYAASSYLSLTPEQWKSHRSYSCQVTHEGSTVEKTVAPTECS
